Measurements as given in publication PMC2785803.
No constants are given. Whether binding was seen depends on the method and setting. Binding seen in cells or lysates may run through a third protein. Some entries that bind do so weakly or less than the wild type. For part of these data: Where a sequence is shown, tags or fusion partners need not be part of it.

Protein sequences, listed by entry. Tags and fused reporters are not part of them. Lines headed by an entry give the natural chain unless they say otherwise; changes in a name come on top. Chains listed by the source or under a name are the forms on record and can include a tag or linker.
UniProt P45481: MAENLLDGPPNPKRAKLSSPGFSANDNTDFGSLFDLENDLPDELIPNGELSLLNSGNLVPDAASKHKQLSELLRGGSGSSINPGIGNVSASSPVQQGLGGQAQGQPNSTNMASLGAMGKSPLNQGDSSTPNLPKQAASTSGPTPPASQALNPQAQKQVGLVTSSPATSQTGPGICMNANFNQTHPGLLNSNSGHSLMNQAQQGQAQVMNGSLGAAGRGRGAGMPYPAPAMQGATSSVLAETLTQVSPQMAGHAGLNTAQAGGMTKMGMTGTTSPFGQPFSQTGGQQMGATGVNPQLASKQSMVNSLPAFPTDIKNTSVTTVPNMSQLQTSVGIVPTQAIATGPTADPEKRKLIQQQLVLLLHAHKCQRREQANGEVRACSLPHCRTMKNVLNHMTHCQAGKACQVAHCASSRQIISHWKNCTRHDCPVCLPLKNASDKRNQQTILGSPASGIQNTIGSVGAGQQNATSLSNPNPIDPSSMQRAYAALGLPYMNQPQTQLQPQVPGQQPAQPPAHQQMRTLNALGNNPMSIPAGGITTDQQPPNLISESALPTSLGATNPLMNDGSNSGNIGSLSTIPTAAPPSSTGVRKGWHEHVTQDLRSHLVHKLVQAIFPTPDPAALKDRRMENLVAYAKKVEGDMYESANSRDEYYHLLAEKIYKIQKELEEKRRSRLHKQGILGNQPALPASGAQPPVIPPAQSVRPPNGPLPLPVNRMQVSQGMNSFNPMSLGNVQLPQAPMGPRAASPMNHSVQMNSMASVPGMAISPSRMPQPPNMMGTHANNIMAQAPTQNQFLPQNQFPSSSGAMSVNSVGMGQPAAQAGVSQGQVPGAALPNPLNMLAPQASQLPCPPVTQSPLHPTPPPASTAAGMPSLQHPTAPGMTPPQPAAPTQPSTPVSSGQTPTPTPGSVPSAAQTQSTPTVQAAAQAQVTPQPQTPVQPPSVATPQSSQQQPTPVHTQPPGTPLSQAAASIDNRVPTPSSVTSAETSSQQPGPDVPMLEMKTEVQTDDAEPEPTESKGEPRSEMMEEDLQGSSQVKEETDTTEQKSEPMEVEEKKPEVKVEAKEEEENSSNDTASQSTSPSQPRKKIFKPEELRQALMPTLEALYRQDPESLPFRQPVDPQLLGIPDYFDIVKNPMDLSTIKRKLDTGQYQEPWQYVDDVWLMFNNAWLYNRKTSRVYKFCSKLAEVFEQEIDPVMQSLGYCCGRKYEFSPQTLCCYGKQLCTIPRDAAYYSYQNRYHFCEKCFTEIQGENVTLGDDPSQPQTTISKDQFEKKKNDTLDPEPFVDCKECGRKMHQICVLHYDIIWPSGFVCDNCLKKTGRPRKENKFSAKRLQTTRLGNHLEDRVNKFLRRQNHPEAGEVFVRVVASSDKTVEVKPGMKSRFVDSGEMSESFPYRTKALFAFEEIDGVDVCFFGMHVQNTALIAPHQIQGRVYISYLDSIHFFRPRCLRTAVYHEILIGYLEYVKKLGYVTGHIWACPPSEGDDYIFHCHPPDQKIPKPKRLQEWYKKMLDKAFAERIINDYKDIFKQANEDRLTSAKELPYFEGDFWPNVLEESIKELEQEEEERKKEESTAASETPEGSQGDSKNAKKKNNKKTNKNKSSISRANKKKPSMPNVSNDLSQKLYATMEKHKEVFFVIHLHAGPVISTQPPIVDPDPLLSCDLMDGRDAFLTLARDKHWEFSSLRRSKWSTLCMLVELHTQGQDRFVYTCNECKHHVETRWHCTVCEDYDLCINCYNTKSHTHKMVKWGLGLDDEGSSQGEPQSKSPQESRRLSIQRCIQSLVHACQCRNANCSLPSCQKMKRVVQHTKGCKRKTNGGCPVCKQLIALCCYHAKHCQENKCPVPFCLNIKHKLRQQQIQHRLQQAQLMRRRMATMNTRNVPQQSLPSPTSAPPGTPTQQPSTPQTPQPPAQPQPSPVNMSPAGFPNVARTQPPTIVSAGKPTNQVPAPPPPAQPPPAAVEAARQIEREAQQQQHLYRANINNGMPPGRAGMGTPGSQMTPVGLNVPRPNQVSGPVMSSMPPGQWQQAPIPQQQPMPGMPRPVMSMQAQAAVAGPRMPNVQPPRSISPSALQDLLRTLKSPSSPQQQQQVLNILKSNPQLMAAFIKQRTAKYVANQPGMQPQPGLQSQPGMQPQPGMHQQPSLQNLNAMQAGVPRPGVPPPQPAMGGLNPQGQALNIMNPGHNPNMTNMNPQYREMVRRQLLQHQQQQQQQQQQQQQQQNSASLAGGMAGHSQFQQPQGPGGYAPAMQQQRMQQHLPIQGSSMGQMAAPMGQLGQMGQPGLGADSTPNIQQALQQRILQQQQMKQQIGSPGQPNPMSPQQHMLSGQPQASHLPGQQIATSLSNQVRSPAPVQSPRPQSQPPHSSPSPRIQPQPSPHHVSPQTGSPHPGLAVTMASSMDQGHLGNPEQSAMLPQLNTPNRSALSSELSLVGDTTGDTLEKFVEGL
UniProt Q9JHD1: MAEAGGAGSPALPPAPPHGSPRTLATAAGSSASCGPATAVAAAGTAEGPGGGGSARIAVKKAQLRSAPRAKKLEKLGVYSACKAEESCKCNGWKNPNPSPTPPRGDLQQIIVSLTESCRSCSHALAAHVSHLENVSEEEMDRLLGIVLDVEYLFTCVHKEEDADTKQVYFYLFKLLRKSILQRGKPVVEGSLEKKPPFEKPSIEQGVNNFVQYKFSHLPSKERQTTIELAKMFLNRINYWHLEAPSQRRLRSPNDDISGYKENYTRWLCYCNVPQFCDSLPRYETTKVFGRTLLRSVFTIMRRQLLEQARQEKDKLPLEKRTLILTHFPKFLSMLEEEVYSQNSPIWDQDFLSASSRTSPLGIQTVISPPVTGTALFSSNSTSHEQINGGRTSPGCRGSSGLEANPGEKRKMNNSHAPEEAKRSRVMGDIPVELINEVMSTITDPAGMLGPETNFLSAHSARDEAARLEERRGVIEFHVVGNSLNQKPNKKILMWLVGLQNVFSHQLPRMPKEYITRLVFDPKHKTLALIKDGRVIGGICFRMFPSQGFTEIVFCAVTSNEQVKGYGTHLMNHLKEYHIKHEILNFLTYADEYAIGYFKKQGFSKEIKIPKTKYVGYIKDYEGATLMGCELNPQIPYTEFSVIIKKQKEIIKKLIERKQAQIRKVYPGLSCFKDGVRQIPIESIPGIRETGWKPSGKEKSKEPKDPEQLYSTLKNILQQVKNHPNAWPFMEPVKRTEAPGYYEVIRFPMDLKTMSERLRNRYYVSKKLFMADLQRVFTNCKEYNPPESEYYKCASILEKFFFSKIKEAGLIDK
UniProt Q9WTL8: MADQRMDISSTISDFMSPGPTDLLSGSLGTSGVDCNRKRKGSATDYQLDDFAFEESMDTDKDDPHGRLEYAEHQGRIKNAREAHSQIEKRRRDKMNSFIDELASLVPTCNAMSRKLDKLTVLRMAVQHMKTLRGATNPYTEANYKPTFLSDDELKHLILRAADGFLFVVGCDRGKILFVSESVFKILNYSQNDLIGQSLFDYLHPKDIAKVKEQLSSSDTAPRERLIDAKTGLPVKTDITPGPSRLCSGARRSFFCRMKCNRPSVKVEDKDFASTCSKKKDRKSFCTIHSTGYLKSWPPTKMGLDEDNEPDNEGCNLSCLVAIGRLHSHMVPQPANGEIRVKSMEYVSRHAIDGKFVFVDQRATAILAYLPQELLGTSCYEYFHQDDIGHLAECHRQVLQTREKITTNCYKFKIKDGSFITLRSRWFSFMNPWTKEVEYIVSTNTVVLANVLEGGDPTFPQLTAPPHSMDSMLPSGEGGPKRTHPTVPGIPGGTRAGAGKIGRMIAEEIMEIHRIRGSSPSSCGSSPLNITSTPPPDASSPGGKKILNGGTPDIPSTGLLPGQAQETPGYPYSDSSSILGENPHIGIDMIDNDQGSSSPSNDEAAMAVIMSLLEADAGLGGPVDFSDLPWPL
myc-YFP-CREB_(DIEDML) (Q01147-1, form named): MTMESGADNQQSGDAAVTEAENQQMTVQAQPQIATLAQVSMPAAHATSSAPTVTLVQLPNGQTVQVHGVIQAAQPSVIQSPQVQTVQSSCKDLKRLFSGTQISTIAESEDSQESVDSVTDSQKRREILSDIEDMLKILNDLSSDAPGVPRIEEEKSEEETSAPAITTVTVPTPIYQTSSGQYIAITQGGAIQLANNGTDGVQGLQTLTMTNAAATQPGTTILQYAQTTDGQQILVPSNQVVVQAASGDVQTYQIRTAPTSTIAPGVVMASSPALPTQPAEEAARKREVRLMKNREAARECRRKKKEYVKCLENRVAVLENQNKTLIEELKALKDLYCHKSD

T1: myc-HDAC3 (UniProt O88895)
T1 sequence: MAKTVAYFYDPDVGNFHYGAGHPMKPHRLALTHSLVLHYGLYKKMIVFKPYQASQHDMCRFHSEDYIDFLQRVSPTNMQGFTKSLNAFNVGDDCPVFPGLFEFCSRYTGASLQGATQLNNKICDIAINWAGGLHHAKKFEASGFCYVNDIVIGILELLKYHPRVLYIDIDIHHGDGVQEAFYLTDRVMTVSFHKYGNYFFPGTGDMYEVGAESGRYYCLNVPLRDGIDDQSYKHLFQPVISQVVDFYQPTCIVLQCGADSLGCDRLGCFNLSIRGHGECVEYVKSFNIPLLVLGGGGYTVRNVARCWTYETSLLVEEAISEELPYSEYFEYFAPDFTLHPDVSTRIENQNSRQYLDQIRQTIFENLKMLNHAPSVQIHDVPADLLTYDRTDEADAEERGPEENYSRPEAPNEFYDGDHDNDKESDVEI


How the values were obtained:
[1] = target: T1, myc-HDAC3; experiment: co-IP; COS-1 cells transfected with pEYFP-CLOCK or pEYFP-BMAL1 and pmyc-HDAC3; anti-myc precipitates, Western blot with anti-GFP
[2] = target: CREB binding protein (CBP), expressed from pcDNA3CBP (UniProt P45481); experiment: co-IP; NIH3T3 cells transfected with pcDNA3CBP and a myc-tagged protein; IP with anti-CBP antibody or anti-rabbit IgG, Western blot with anti-myc or anti-CBP
[3] = target: endogenous CBP of NIH3T3 cells (mouse (endogenous in NIH3T3)) (UniProt P45481); experiment: co-IP; NIH3T3 cells transfected with a myc-tagged protein only (endogenous CBP); IP with anti-CBP antibody or anti-rabbit IgG, Western blot with anti-myc
[4] = target: CREB binding protein (CBP), expressed from pcDNA3CBP (UniProt P45481); experiment: co-IP; COS-1 cells transfected with pcDNA3CBP and one myc- or HA-tagged protein; IP with anti-CBP antibody or anti-rabbit IgG, Western blot with anti-myc, anti-HA or anti-CBP
[5] = target: HA-pCAF (UniProt Q9JHD1); experiment: co-IP; COS-1 cells transfected with pmyc-CLOCK or pmyc-BMAL1 and pHA-pCAF; IP with anti-HA antibody, Western blot with anti-myc
[6] = target: HA-BMAL1 (UniProt Q9WTL8); experiment: co-IP; NIH3T3 cells transfected with pHA-BMAL1 and pmyc-CLOCK; IP with anti-HA antibody, Western blot with anti-HA or anti-myc

| binding [1] | binding [2] | binding [3] | binding [4] | binding [5] | binding [6] | Molecule |
| --- | --- | --- | --- | --- | --- | --- |
| no binding |  |  |  |  |  | YFP-BMAL1 (from UniProt Q9WTL8 1-632) |
|  | binds | binds | binds |  |  | myc-YFP-CREB_(DIEDML) (from UniProt Q01147-1 1-341) |
|  | no binding | no binding | no binding | no binding |  | myc-BMAL1 (from UniProt Q9WTL8 1-632) |
|  |  | no binding |  | binds | binds | myc-CLOCK (protein, UniProt O08785 1-855) MVFTVSCSKMSSIVDRDDSSIFDGLVEEDDKDKAKRVSRNKSEKKRRDQFNVLIKELGSMLPGNARKMDKSTVLQKSIDFLRKHKETTAQSDASEIRQDWKPTFLSNEEFTQLMLEALDGFFLAIMTDGSIIYVSESVTSLLEHLPSDLVDQSIFNFIPEGEHSEVYKILSTHLLESDSLTPEYLKSKNQLEFCCHMLRGTIDPKEPSTYEYVRFIGNFKSLTSVSTSTHNGFEGTIQRTHRPSYEDRVCFVATVRLATPQFIKEMCTVEEPNEEFTSRHSLEWKFLFLDHRAPPIIGYLPFEVLGTSGYDYYHVDDLENLAKCHEHLMQYGKGKSCYYRFLTKGQQWIWLQTHYYITYHQWNSRPEFIVCTHTVVSYAEVRAERRRELGIEESLPETAADKSQDSGSDNRINTVSLKEALERFDHSPTPSASSRSSRKSSHTAVSDPSSTPTKIPTDTSTPPRQHLPAHEKMTQRRSSFSSQSINSQSVGPSLTQPAMSQAANLPIPQGMSQFQFSAQLGAMQHLKDQLEQRTRMIEANIHRQQEELRKIQEQLQMVHGQGLQMFLQQSNPGLNFGSVQLSSGNSNIQQLTPVNMQGQVVPANQVQSGHISTGQHMIQQQTLQSTSTQQSQQSVMSGHSQQTSLPSQTPSTLTAPLYNTMVISQPAAGSMVQIPSSMPQNSTQSATVTTFTQDRQIRFSQGQQLVTKLVTAPVACGAVMVPSTMLMGQVVTAYPTFATQQQQAQTLSVTQQQQQQQQQPPQQQQQQQQSSQEQQLPSVQQPAQAQLGQPPQQFLQTSRLLHGNPSTQLILSAAFPLQQSTFPPSHHQQHQPQQQQQLPRHRTDSLTDPSKVQPQ |
| binds |  |  |  |  |  | YFP-CLOCK (protein, UniProt O08785 1-855) MVFTVSCSKMSSIVDRDDSSIFDGLVEEDDKDKAKRVSRNKSEKKRRDQFNVLIKELGSMLPGNARKMDKSTVLQKSIDFLRKHKETTAQSDASEIRQDWKPTFLSNEEFTQLMLEALDGFFLAIMTDGSIIYVSESVTSLLEHLPSDLVDQSIFNFIPEGEHSEVYKILSTHLLESDSLTPEYLKSKNQLEFCCHMLRGTIDPKEPSTYEYVRFIGNFKSLTSVSTSTHNGFEGTIQRTHRPSYEDRVCFVATVRLATPQFIKEMCTVEEPNEEFTSRHSLEWKFLFLDHRAPPIIGYLPFEVLGTSGYDYYHVDDLENLAKCHEHLMQYGKGKSCYYRFLTKGQQWIWLQTHYYITYHQWNSRPEFIVCTHTVVSYAEVRAERRRELGIEESLPETAADKSQDSGSDNRINTVSLKEALERFDHSPTPSASSRSSRKSSHTAVSDPSSTPTKIPTDTSTPPRQHLPAHEKMTQRRSSFSSQSINSQSVGPSLTQPAMSQAANLPIPQGMSQFQFSAQLGAMQHLKDQLEQRTRMIEANIHRQQEELRKIQEQLQMVHGQGLQMFLQQSNPGLNFGSVQLSSGNSNIQQLTPVNMQGQVVPANQVQSGHISTGQHMIQQQTLQSTSTQQSQQSVMSGHSQQTSLPSQTPSTLTAPLYNTMVISQPAAGSMVQIPSSMPQNSTQSATVTTFTQDRQIRFSQGQQLVTKLVTAPVACGAVMVPSTMLMGQVVTAYPTFATQQQQAQTLSVTQQQQQQQQQPPQQQQQQQQSSQEQQLPSVQQPAQAQLGQPPQQFLQTSRLLHGNPSTQLILSAAFPLQQSTFPPSHHQQHQPQQQQQLPRHRTDSLTDPSKVQPQ |
